Certain results were filed several times, with different values. The other results are left out here. The source may hold further records. Values given together are repeats (runs, samples, wells, individuals or studies). Brackets tell where a record comes from. Letters hold for one entry only.
Tested on: M. tuberculosis H37Rv growth inhibition with meropenem
Test: M. tuberculosis growth inhibition, H37Rv, set 2, dose response (AID 504703);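 also: growth ran 7 days at 37 °C then overnight with Alamar Blue before reading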
Conditions: measured here: IC50 without meropenem

SMILES: COc1ccc2oc(C(=O)Nc3nc4ccccc4[nH]3)c(C)c2c1
- IC50: 460 nM [sample A] and 14.3 µM [sample B]

From PubChem BioAssay AID504703 (Southern Research Specialized Biocontainment Screening …, 2011)
